In the BET-seq Pho4 binding data (Le et al. 2018):
The list shows a part of the results. Values were computed here from the reads of four pooled replicates and scatter widely.

Each sequence was assayed against T1, Pho4 (S. cerevisiae) (UniProt P07270) (assay: relative binding free energy (BET-seq); higher = weaker binding). Conditions: reference: library average.
T1 sequence: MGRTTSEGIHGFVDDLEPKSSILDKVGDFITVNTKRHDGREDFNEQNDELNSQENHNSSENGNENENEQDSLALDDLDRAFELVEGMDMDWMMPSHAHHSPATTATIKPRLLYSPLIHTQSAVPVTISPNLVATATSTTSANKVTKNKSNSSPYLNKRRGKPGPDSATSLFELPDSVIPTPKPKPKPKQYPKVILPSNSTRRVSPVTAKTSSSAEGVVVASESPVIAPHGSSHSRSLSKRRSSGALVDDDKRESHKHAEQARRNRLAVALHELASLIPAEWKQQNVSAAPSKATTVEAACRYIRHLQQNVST
TGATACACGTGTTTAT was tested, and the “relative binding free energy” value was -0.0837 kJ/mol.
In the case of TGTCTCACGTGTTGGC, the “relative binding free energy” value is reported as 1.21 kJ/mol.
In the case of AAGCTCACGTGGGATG, the “relative binding free energy” value is reported as 0.628 kJ/mol.
ATATGCACGTGTTGGT was tested, and the “relative binding free energy” value was 0.126 kJ/mol.
In the case of TGTTACACGTGCTTAT, the “relative binding free energy” value is reported as 0.251 kJ/mol.
With CTGGACACGTGAGCGG the “relative binding free energy” value was 1.3 kJ/mol.
For TGAGACACGTGGATTG, the “relative binding free energy” value was -0.502 kJ/mol.
In the case of TAAAACACGTGGGGCT, the “relative binding free energy” value is reported as 0.126 kJ/mol.
With TTTGGCACGTGAATGA the “relative binding free energy” value was 1.05 kJ/mol.
TGCGGCACGTGGAGTT was tested, and the “relative binding free energy” value was 0.251 kJ/mol.
For AGCTGCACGTGAGTGA, the “relative binding free energy” value was 1 kJ/mol.
With CGTGTCACGTGTTTAG the “relative binding free energy” value was 0.126 kJ/mol.
With AGGTGCACGTGATGAT the “relative binding free energy” value was 0.544 kJ/mol.
GGTGTCACGTGGTGCC was tested, and the “relative binding free energy” value was 0.377 kJ/mol.
In the case of CATTTCACGTGTCAGG, the “relative binding free energy” value is reported as 1.17 kJ/mol.
AATGTCACGTGGGAGT was tested, and the “relative binding free energy” value was 0.377 kJ/mol.
GTAAGCACGTGTATGA was tested, and the “relative binding free energy” value was -0.377 kJ/mol.
For GTTATCACGTGGTTGC, the “relative binding free energy” value was 0.879 kJ/mol.
In the case of TTGCTCACGTGTGCGT, the “relative binding free energy” value is reported as -0.0418 kJ/mol.
With TGTTCCACGTGTTGAG the “relative binding free energy” value was 0.669 kJ/mol.
In the case of GGTTTCACGTGCGTAG, the “relative binding free energy” value is reported as 1 kJ/mol.
With TGTGTCACGTGTGATC the “relative binding free energy” value was 0.795 kJ/mol.
In the case of AGAAACACGTGGGTGC, the “relative binding free energy” value is reported as 0.167 kJ/mol.
In the case of TGGGTCACGTGGTAAG, the “relative binding free energy” value is reported as 0.795 kJ/mol.
GTATACACGTGCGTGG was tested, and the “relative binding free energy” value was -0.628 kJ/mol.
With GGGAGCACGTGTGGTG the “relative binding free energy” value was -0.293 kJ/mol.
In the case of AGGGACACGTGGTAGA, the “relative binding free energy” value is reported as -0.711 kJ/mol.
For TGCTTCACGTGAGTGA, the “relative binding free energy” value was 1.17 kJ/mol.
For AGCTGCACGTGGTGTT, the “relative binding free energy” value was -0.502 kJ/mol.
With TTGAACACGTGACGGT the “relative binding free energy” value was 0.46 kJ/mol.
In the case of GTAAGCACGTGTGGCG, the “relative binding free energy” value is reported as 0.46 kJ/mol.
With TTAGTCACGTGCGAAT the “relative binding free energy” value was 0.92 kJ/mol.
In the case of TGGGCCACGTGGTGAT, the “relative binding free energy” value is reported as -0.335 kJ/mol.
For TTGCGCACGTGCAGGG, the “relative binding free energy” value was -0.669 kJ/mol.
For TTTGTCACGTGGAAGC, the “relative binding free energy” value was 1.26 kJ/mol.
GAAGGCACGTGGTATT was tested, and the “relative binding free energy” value was -0.293 kJ/mol.
For TTTGGCACGTGGTGAA, the “relative binding free energy” value was -0.377 kJ/mol.
ATTAACACGTGATGTA was tested, and the “relative binding free energy” value was 0.0837 kJ/mol.
TGTTTCACGTGTCTGC was tested, and the “relative binding free energy” value was 0.962 kJ/mol.
With TTCATCACGTGGCTTT the “relative binding free energy” value was 0.46 kJ/mol.
In the case of AGTCGCACGTGTAGAG, the “relative binding free energy” value is reported as 0.167 kJ/mol.
For CAGAGCACGTGTGTTT, the “relative binding free energy” value was -0.46 kJ/mol.
In the case of GTCAGCACGTGGGTAG, the “relative binding free energy” value is reported as -0.92 kJ/mol.
In the case of GTAAGCACGTGTATGT, the “relative binding free energy” value is reported as 0.126 kJ/mol.
In the case of TGTACCACGTGTAGTT, the “relative binding free energy” value is reported as 0.251 kJ/mol.
In the case of ACGGGCACGTGTGCGG, the “relative binding free energy” value is reported as -0.293 kJ/mol.
CGTGGCACGTGGTTGT was tested, and the “relative binding free energy” value was -0.837 kJ/mol.
In the case of TATTTCACGTGAGCGT, the “relative binding free energy” value is reported as 1.42 kJ/mol.
In the case of TGTGGCACGTGTTGGG, the “relative binding free energy” value is reported as 0.126 kJ/mol.
For TGTTTCACGTGCTATA, the “relative binding free energy” value was 1 kJ/mol.
With TTGTACACGTGAGTAG the “relative binding free energy” value was 0.126 kJ/mol.
For TGAATCACGTGTTATT, the “relative binding free energy” value was 0.209 kJ/mol.
For GAATGCACGTGTGGTG, the “relative binding free energy” value was 0.377 kJ/mol.
With AGGGGCACGTGCGTGA the “relative binding free energy” value was -1 kJ/mol.
GATTACACGTGCGTGT was tested, and the “relative binding free energy” value was 0.126 kJ/mol.
ATGTGCACGTGTGGAG was tested, and the “relative binding free energy” value was -0.418 kJ/mol.
TAGTTCACGTGTTTTG was tested, and the “relative binding free energy” value was 1 kJ/mol.
With ATAGTCACGTGTTTGC the “relative binding free energy” value was 0.126 kJ/mol.
For TCGTGCACGTGCTGGG, the “relative binding free energy” value was -0.209 kJ/mol.
For CCATGCACGTGGGGTA, the “relative binding free energy” value was -0.46 kJ/mol.
In the case of TTTTACACGTGTAGCA, the “relative binding free energy” value is reported as 0.335 kJ/mol.
For TTGATCACGTGTTAAT, the “relative binding free energy” value was 0.167 kJ/mol.
In the case of AGCTGCACGTGGGGAG, the “relative binding free energy” value is reported as -0.418 kJ/mol.
In the case of TGTTTCACGTGCGTTA, the “relative binding free energy” value is reported as 0.962 kJ/mol.
In the case of TGGCGCACGTGAATTG, the “relative binding free energy” value is reported as 0.962 kJ/mol.
TGGCGCACGTGGGGAT was tested, and the “relative binding free energy” value was -0.92 kJ/mol.
GATGGCACGTGTTAGC was tested, and the “relative binding free energy” value was 0.251 kJ/mol.
GAGGGCACGTGCAGGT was tested, and the “relative binding free energy” value was -0.837 kJ/mol.
For TTTGTCACGTGTTCAG, the “relative binding free energy” value was 1.17 kJ/mol.
GTCGGCACGTGACTGG was tested, and the “relative binding free energy” value was 0.293 kJ/mol.
AGGTACACGTGCGGGG was tested, and the “relative binding free energy” value was -0.377 kJ/mol.
For CCGGTCACGTGGTTTA, the “relative binding free energy” value was 0.293 kJ/mol.
For TGGGGCACGTGCAATT, the “relative binding free energy” value was -0.46 kJ/mol.
In the case of GGGCGCACGTGTGGAT, the “relative binding free energy” value is reported as -0.0418 kJ/mol.
In the case of TGGTGCACGTGTGGCG, the “relative binding free energy” value is reported as 0.0837 kJ/mol.
For GCTTTCACGTGCGTGT, the “relative binding free energy” value was 1.92 kJ/mol.
For TTATTCACGTGTGCGG, the “relative binding free energy” value was 0.711 kJ/mol.
With AGGAGCACGTGATAGG the “relative binding free energy” value was -0.377 kJ/mol.
In the case of TCGGTCACGTGCCGGT, the “relative binding free energy” value is reported as 0 kJ/mol.
With GGGTACACGTGCAGGG the “relative binding free energy” value was 0.502 kJ/mol.
In the case of TATTGCACGTGGTTAA, the “relative binding free energy” value is reported as -0.418 kJ/mol.
In the case of GGAAGCACGTGTTTGG, the “relative binding free energy” value is reported as -0.335 kJ/mol.
AATGACACGTGCGTAT was tested, and the “relative binding free energy” value was 0.418 kJ/mol.
GAGATCACGTGATGTT was tested, and the “relative binding free energy” value was 1.63 kJ/mol.
With GTGTTCACGTGGTCCT the “relative binding free energy” value was 0.628 kJ/mol.
GTGTGCACGTGTTCGT was tested, and the “relative binding free energy” value was 0.418 kJ/mol.
With AGGGGCACGTGTAGGG the “relative binding free energy” value was -0.251 kJ/mol.
In the case of TTGAGCACGTGGATAG, the “relative binding free energy” value is reported as 0 kJ/mol.
GTCTACACGTGTTTGG was tested, and the “relative binding free energy” value was 1 kJ/mol.
AGTTTCACGTGTATCA was tested, and the “relative binding free energy” value was 1.46 kJ/mol.
With GTCTGCACGTGAAGTG the “relative binding free energy” value was 0.879 kJ/mol.
In the case of TTGTTCACGTGGAAAT, the “relative binding free energy” value is reported as 2.05 kJ/mol.
For TATTACACGTGAGGAT, the “relative binding free energy” value was 0.669 kJ/mol.
CTTTGCACGTGAGAGG was tested, and the “relative binding free energy” value was 0.879 kJ/mol.
GAGGTCACGTGGATGA was tested, and the “relative binding free energy” value was 0.753 kJ/mol.
For ACGGGCACGTGGTCGT, the “relative binding free energy” value was -0.92 kJ/mol.
In the case of ATATCCACGTGGGTAT, the “relative binding free energy” value is reported as 0.0418 kJ/mol.
With GTTAGCACGTGACGAG the “relative binding free energy” value was 0.92 kJ/mol.
For AGGTGCACGTGGCTGC, the “relative binding free energy” value was -1.13 kJ/mol.
CTTAGCACGTGAGGTG was tested, and the “relative binding free energy” value was 0.669 kJ/mol.
In the case of CTAGGCACGTGAGCTG, the “relative binding free energy” value is reported as 0.711 kJ/mol.
TTGTACACGTGTCTGG was tested, and the “relative binding free energy” value was 0.586 kJ/mol.
In the case of AGTGTCACGTGGATTT, the “relative binding free energy” value is reported as 0.167 kJ/mol.
For AACTTCACGTGATGTT, the “relative binding free energy” value was 1.38 kJ/mol.
For TATTACACGTGAGGAA, the “relative binding free energy” value was 1.63 kJ/mol.
AGTGACACGTGGTATC was tested, and the “relative binding free energy” value was 0 kJ/mol.
CGGGACACGTGTTGTA was tested, and the “relative binding free energy” value was 0.167 kJ/mol.
With GTAGTCACGTGTGGAT the “relative binding free energy” value was 0.669 kJ/mol.
With GGGTGCACGTGTGCAG the “relative binding free energy” value was 0 kJ/mol.
With TGTCCCACGTGGGGAT the “relative binding free energy” value was -0.209 kJ/mol.
With ATGCTCACGTGGTGCG the “relative binding free energy” value was 0.209 kJ/mol.
With GGTGACACGTGATTTG the “relative binding free energy” value was 0.837 kJ/mol.
In the case of CTGGTCACGTGGTGTC, the “relative binding free energy” value is reported as 0.293 kJ/mol.
For CTTGGCACGTGTGCTA, the “relative binding free energy” value was -0.586 kJ/mol.
With GTTGTCACGTGTAGGT the “relative binding free energy” value was 0.711 kJ/mol.
